Experimental data reported in ChEMBL document CHEMBL5724801, “EUbOPEN Chemogenomics Library - Multiplex” (2024).
Certain results were filed several times, with different values. Only these are listed. An entry can have further records. Values that stand side by side repeat one measurement in other runs, samples, wells, individuals or studies.

Assays:
Type in all cases: toxicity, cell-based
[1] = test system: Fibroblast; test: Multiplex assay against human fibroblast
Method in brief: (§1)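 Hoechst33342, BioTracker Green Microtubule Cytoskeleton Dye, MitoTracker Red and Annexin V Alexa Fluor 680 were added to live cells at seeding, and imaging on a CQ1 microscope at 37°C and 5% CO2 followed compound addition. Gating by CellPathfinder machine learning separated cells into Hoechst high-intensity objects or normal cells, then normal cells into healthy, pyknosed or fragmented nuclei, then pyknosed cells into mitotic or apoptotic. Per cents of healthy-nucleus cells are reported for the tubulin, mitochondrial-mass and membrane-permeability phenotypes.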

[2] = test system: HEK-293T; test: Multiplex assay against HEK293T; conditions: human; method in brief: as §1
[3] = test system: U2OS; test: Multiplex assay against U2OS; conditions: human; method in brief: as §1
[4] = 12 h, 1 µM, compound concentration 1 uM
[5] = 24 h, 1 µM, compound concentration 1 uM
[6] = 24 h, 10 µM, compound concentration 10 uM
[7] = 48 h, 1 µM, compound concentration 1 uM
[8] = 48 h, 10 µM, compound concentration 10 uM
[9] = 12 h, 10 µM, compound concentration 10 uM

Row | Compound | Population Fragmented Nuclei (%) [1, 4] | Population Membrane Permeable-Phenotype (%) [1, 6] | Population Mitotic Cells (%) [1, 8] | Population Apoptotic (%) [1, 7] | Population Mitochondria Different-Phenotype (%) [1, 7] | Population Healthy Nuclei (%) [2, 4] | Population Tubulin-Different-Phenotype (%) [2, 4] | Total Cell Count [2, 5] | Population Tubulin-Different-Phenotype (%) [2, 7] | Total Cell Count [2, 7] | Population Tubulin-Different-Phenotype (%) [2, 8] | Population Mitochondria Different-Phenotype (%) [3, 9] | Total Cell Count [3, 7] | Population Membrane Permeable-Phenotype (%) [1, 8] | Population Mitochondria Different-Phenotype (%) [2, 9] | Population Tubulin-Different-Phenotype (%) [2, 9] | Population Membrane Permeable-Phenotype (%) [3, 8] | Population Pyknosed Nuclei (%) [2, 7] | Population Mitochondria Different-Phenotype (%) [3, 6] | Population Tubulin-Different-Phenotype (%) [1, 8] | other results
1 | Cc1sc2c(c1C)C(c1ccc(Cl)cc1)=N[C@@H](CC(=O)NCCCCCCCCNC(=O)COc1cccc3c1C(=O)N(C1CCC(=O)NC1=O)C3=O)c1nnc(C)n1-2 (stereo partly specified) | 10% and 34% | 3% and 17% | 13% and 42% |  |  |  |  |  |  |  |  |  |  |  |  |  |  |  |  |  | Population Membrane Permeable-Phenotype (%) [1, 4]: 1% and 23%; Population Mitochondria Different-Phenotype (%) [1, 4]: 4% and 23%; Population Membrane Permeable-Phenotype (%) [1, 5]: 3% and 16%; Population Mitochondria Different-Phenotype (%) [1, 5]: 3% and 20%; Population Hoechst High Intensity Objects (%) [1, 7]: 27% and 8%; Population Membrane Permeable-Phenotype (%) [1, 7]: 0% and 27%; Population Hoechst High Intensity Objects (%) [2, 4]: 9% and 30%; Population Hoechst High Intensity Objects (%) [2, 5]: 6% and 30%; Population Hoechst High Intensity Objects (%) [2, 6]: 12% and 39%; Population Hoechst High Intensity Objects (%) [2, 7]: 2% and 15%; Population Fragmented Nuclei (%) [3, 4]: 43% and 13%; Population Membrane Permeable-Phenotype (%) [3, 9]: 2% and 17%; Population Fragmented Nuclei (%) [3, 5]: 42% and 12%; Population Membrane Permeable-Phenotype (%) [3, 6]: 4% and 21%; Population Tubulin-Different-Phenotype (%) [3, 6]: 2% and 14%
2 | CC(C)(O)c1cnc(N2C[C@@]3(CCC[C@](C)(Cn4cnc5ccc(C#N)cc54)C3)OC2=O)cn1 [GSK2798745] |  |  |  | 8.33% and 36.36% | 15.28% and 3.67% | 59.66% and 14.55% | 7.14% and 29.17% | 533 and 162 | 0.74% and 31.06% | 1420 and 235 | 4.11% and 47.41% | 0.62% and 13.64% | 903 and 270 |  |  |  |  |  |  |  | Population Pyknosed Nuclei (%) [2, 5]: 20.83% and 64.2%; Population Apoptotic (%) [2, 7]: 2.45% and 26.98%; Total Cell Count [2, 8]: 736 and 219
3 | Cc1cc(Nc2ncc(Cl)c(Nc3ccccc3S(=O)(=O)C(C)C)n2)c(OC(C)C)cc1C1CCNCC1 [CERITINIB] |  | 17.65% and 57.39% |  | 12% and 50% |  | 28.35% and 3.85% |  |  | 7.44% and 83.78% | 485 and 127 |  |  |  | 5.19% and 27.78% | 85.71% and 0% | 85.71% and 0% | 7.09% and 31.25% |  |  |  | Population Membrane Permeable-Phenotype (%) [1, 9]: 7.14% and 60%; Population Mitochondria Different-Phenotype (%) [1, 8]: 45.19% and 8.33%; Population Healthy Nuclei (%) [2, 5]: 50.36% and 16.18%; Population Mitotic Cells (%) [2, 6]: 35.76% and 11.76%; Population Mitochondria Different-Phenotype (%) [3, 4]: 11.21% and 81.63%; Population Mitochondria Different-Phenotype (%) [3, 5]: 8.55% and 84.87%; Population Mitochondria Different-Phenotype (%) [3, 7]: 3.1% and 53.44%; Population Tubulin-Different-Phenotype (%) [3, 7]: 10.85% and 33.59%
4 | COC[C@@H](CC(C)C)NC1=N/C(=C\c2ccc3ncsc3c2)C(=O)N1C |  |  |  |  |  |  |  |  | 2.63% and 50.68% | 510 and 147 |  | 0.33% and 24.11% |  |  |  |  |  | 6.01% and 35.56% | 1.28% and 22.22% |  | Population Apoptotic (%) [1, 9]: 12.16% and 48.48%; Population Mitochondria Different-Phenotype (%) [1, 6]: 3.54% and 16.3%; Population Tubulin-Different-Phenotype (%) [1, 7]: 11.39% and 39.37%; Population Mitochondria Different-Phenotype (%) [2, 4]: 34.03% and 4.88%; Population Pyknosed Nuclei (%) [2, 5]: 17.7% and 54.82%; Population Apoptotic (%) [2, 8]: 78.72% and 21.57%; Population Mitotic Cells (%) [2, 8]: 21.28% and 78.43%; Population Healthy Nuclei (%) [3, 9]: 49.11% and 12.53%; Population Apoptotic (%) [3, 6]: 8.33% and 25%; Population Healthy Nuclei (%) [3, 6]: 42.5% and 10.27%
5 | CN(C)CCCn1cc(C2=C(c3c[nH]c4ccccc34)C(=O)NC2=O)c2ccccc21 [GF-109203] | 12.9% and 2.07% |  |  | 7.14% and 33.33% |  | 48.83% and 13.79% | 10.18% and 33.33% | 499 and 166 | 2.05% and 51.65% | 871 and 186 | 26.39% and 83.87% | 1.11% and 73.68% | 912 and 290 | 1.74% and 16.28% | 47.86% and 14.29% |  | 6.45% and 25.93% | 15.38% and 50% | 12.87% and 89.66% |  | Population Apoptotic (%) [1, 5]: 1.69% and 14.29%; Population Apoptotic (%) [1, 6]: 4.29% and 19.18%; Population Healthy Nuclei (%) [2, 9]: 37.5% and 9.52%; Population Healthy Nuclei (%) [2, 6]: 47.09% and 11.18%; Population Fragmented Nuclei (%) [3, 4]: 1.81% and 18.63%; Population Mitochondria Different-Phenotype (%) [3, 4]: 0.29% and 13.79%; Population Fragmented Nuclei (%) [3, 5]: 0.98% and 17.09%; Population Fragmented Nuclei (%) [3, 7]: 2.41% and 16.26%
6 | Cc1cc(C)c(NC(=O)C2CC3CCC2C3)c(C)c1 (stereo unspecified) |  |  |  |  | 15.52% and 2.34% |  | 4.55% and 22.5% | 589 and 171 | 1.88% and 50.41% | 1409 and 198 | 1.3% and 32.39% |  |  |  |  | 3.7% and 16.22% |  | 10.43% and 36.92% |  | 7.27% and 23.59% | Population Mitochondria Different-Phenotype (%) [2, 5]: 17.16% and 4%; Total Cell Count [2, 8]: 917 and 247; Total Cell Count [3, 8]: 1144 and 347
7 | CN1CCN(c2ccc(Nc3c4ccccc4nc4ccccc34)cc2)CC1.Cl.Cl.O |  |  | 31% and 0% |  |  |  |  |  |  |  |  |  |  |  |  |  |  |  |  |  | Population Mitochondria Different-Phenotype (%) [1, 9]: 47% and 13%; Population Mitotic Cells (%) [1, 9]: 8% and 33%; Population Tubulin-Different-Phenotype (%) [1, 5]: 12% and 39%; Population Apoptotic (%) [1, 8]: 68% and 0%; Population Mitotic Cells (%) [2, 8]: 0% and 33%; Population Membrane Permeable-Phenotype (%) [3, 7]: 6% and 19%; Population Pyknosed Nuclei (%) [3, 8]: 15% and 4%
8 | CC(=O)NCC(=O)N1[C@@H]2CC[C@H]1c1ccc(Nc3ncc(C(F)(F)F)c(NC4CCC4)n3)cc12 [PF-03814735] |  | 9.72% and 35.29% | 63.16% and 16.22% | 9.09% and 83.33% | 17.16% and 3.57% | 55.4% and 13.33% | 8.44% and 45% |  | 3.65% and 50% |  | 7.53% and 46.67% | 0.47% and 32.2% |  | 4.81% and 17.86% |  |  |  | 7.47% and 26.85% | 3.12% and 28.12% | 20.19% and 73.21% | Population Mitochondria Different-Phenotype (%) [1, 6]: 8.33% and 36.47%; Population Mitotic Cells (%) [1, 6]: 60.87% and 9.68%; Population Mitotic Cells (%) [1, 7]: 90.91% and 16.67%; Population Healthy Nuclei (%) [2, 9]: 39.87% and 9.73%; Population Tubulin-Different-Phenotype (%) [2, 5]: 22.27% and 6%; Population Healthy Nuclei (%) [2, 6]: 46.8% and 7.2%; Population Tubulin-Different-Phenotype (%) [2, 6]: 83.16% and 22.22%; Population Mitochondria Different-Phenotype (%) [2, 7]: 39.06% and 9.43%; Population Tubulin-Different-Phenotype (%) [3, 6]: 20.83% and 6.25%; Population Mitotic Cells (%) [3, 8]: 21.03% and 6.59%; Population Tubulin-Different-Phenotype (%) [3, 8]: 59.18% and 13.64%
9 | O=C(NCc1cccc(O)c1)Nc1nc(-c2ccncc2)cs1 | 20.69% and 4.3% |  |  |  | 23.73% and 4.76% |  | 5.53% and 50% | 476 and 120 | 0.56% and 26.73% | 619 and 149 |  | 0.65% and 15.48% | 969 and 307 |  |  | 11.11% and 40.3% |  |  | 0.52% and 17.78% | 6.63% and 28.02% | Population Fragmented Nuclei (%) [1, 5]: 17.51% and 5.05%; Population Fragmented Nuclei (%) [1, 8]: 12.11% and 1.35%; Total Cell Count [2, 4]: 412 and 128; Total Cell Count [3, 9]: 378 and 115; Total Cell Count [3, 6]: 463 and 133; Total Cell Count [3, 8]: 670 and 163
10 | N#Cc1ccnc(Nc2cc(C3CCN(C4COC4)CC3)cc(N3CCC(F)(F)C3)n2)c1 |  |  |  | 7.14% and 42.42% |  |  |  |  | 9.85% and 72.73% | 442 and 144 | 55% and 17.86% | 11% and 60% | 703 and 201 |  | 35.19% and 0% | 72.22% and 19.44% | 2.3% and 13.85% |  |  |  | Population Membrane Permeable-Phenotype (%) [1, 9]: 3.8% and 22.81%; Population Mitochondria Different-Phenotype (%) [2, 4]: 34.62% and 10.53%; Population Membrane Permeable-Phenotype (%) [2, 9]: 1.85% and 27.78%; Population Healthy Nuclei (%) [2, 5]: 42.39% and 13.39%; Population Mitochondria Different-Phenotype (%) [2, 6]: 59.57% and 15.91%; Population Tubulin-Different-Phenotype (%) [2, 6]: 70.21% and 13.64%; Population Apoptotic (%) [2, 7]: 30.61% and 9.2%; Population Mitochondria Different-Phenotype (%) [2, 8]: 75% and 14.29%; Total Cell Count [3, 4]: 383 and 127; Total Cell Count [3, 5]: 499 and 146
